# Measurements taken from the supplement of paper PMC4604168 (melanoma cell lines).
# The other results are listed elsewhere or left out. Single values are uncertain, as repeats are few or missing.
# Legend:
# Assay in all cases: cell count relative to DMSO control; melanoma cells; higher = more viable cells
# Conditions in all cases: library dose: standard library concentration; 72 h
# G361 = tested on: G361
# IPC-298 = tested on: IPC-298
# IST-MEL1 = tested on: IST-MEL1
# LOXIMVI = tested on: LOXIMVI
# MEL-HO = tested on: MEL-HO
# MeWo = tested on: MeWo
# RPMI7951 = tested on: RPMI7951
# RVH-421 = tested on: RVH-421
# SkMel28 = tested on: SkMel28
# SkMel2 = tested on: SkMel2
# SkMel30 = tested on: SkMel30
# SkMel5 = tested on: SkMel5
# UACC257 = tested on: UACC257
# UACC62 = tested on: UACC62
# WM115 = tested on: WM115
# WM1716 = tested on: WM1716
# WM3526 = tested on: WM3526
# LB2518-MEL = tested on: LB2518-MEL
# MZ2-MEL = tested on: MZ2-MEL
# WM1745 = tested on: WM1745
# 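Also: cells treated in 1,536-well plates, then fixed and DAPI-stained, with nuclei counted from automated high-throughput microscope images.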
SMILES,cell count (G361) [%],cell count (IPC-298) [%],cell count (IST-MEL1) [%],cell count (LOXIMVI) [%],cell count (MEL-HO) [%],cell count (MeWo) [%],cell count (RPMI7951) [%],cell count (RVH-421) [%],cell count (SkMel28) [%],cell count (SkMel2) [%],cell count (SkMel30) [%],cell count (SkMel5) [%],cell count (UACC257) [%],cell count (UACC62) [%],cell count (WM115) [%],cell count (WM1716) [%],cell count (WM3526) [%],cell count (LB2518-MEL) [%],cell count (MZ2-MEL) [%],cell count (WM1745) [%]
"CC(=O)c1c(C)c2cnc(Nc3ccc(N4CCNCC4)cn3)nc2n(C2CCCC2)c1=O [palbociclib] + O=S(=O)(c1ccccc1)N(CC(F)(F)F)c1ccc(C(O)(C(F)(F)F)C(F)(F)F)cc1 [T0901317] (first compound 0.2 µM, partner dose 7 µM)",83.2,79.1,83.6,84.4,82,58.4,63.6,53.1,65.2,72.2,88.1,57.5,79.4,63.5,60.6,39.9,65.9,–,–,–
"Nc1nc(F)nc2c1ncn2[C@@H]1O[C@H](CO)[C@@H](O)[C@@H]1O [fludarabine] + Oc1nc(-c2ccc(C(F)(F)F)cc2)nc2c1CSCC2 [XAV939] (first compound 1 µM, partner dose 10 µM)",85.2,67.3,83.2,240,75.7,118,46.2,93.8,5.77,2.47,26.6,39.8,24.3,63.8,96.1,60.4,37,–,–,–
"Nc1ncn([C@H]2C[C@H](O)[C@@H](CO)O2)c(=O)n1 [decitabine] + Cn1cc(/C=C2\C(=O)Nc3cccnc32)c2ccccc21 [GW441756] (first compound 0.5 µM, partner dose 2 µM)",68,53.1,73.8,106,71.4,74.1,97.4,136,81.9,99.6,93.5,72.9,87.8,56.9,82.7,73.9,93,67,64.5,–
"Nc1ccn([C@@H]2O[C@H](CO)[C@@H](O)C2(F)F)c(=O)n1 [gemcitabine] + O=C(O)C(=O)Nc1sc2c(c1C(=O)O)CCNC2 [TCS401] (first compound 0.002 µM, partner dose 8.33333 µM)",42,51.6,46.9,74.8,59.2,44.4,71.5,70.1,79.6,80.8,110,66.1,97,108,72.2,91.6,73.4,72.9,79.5,–
"CO[C@H]1C[C@@H]2CC[C@@H](C)[C@@](O)(O2)C(=O)C(=O)N2CCCC[C@H]2C(=O)O[C@H]([C@H](C)C[C@@H]2CC[C@@H](OCCO)[C@H](OC)C2)CC(=O)[C@H](C)/C=C(\C)[C@@H](O)[C@@H](OC)C(=O)[C@H](C)C[C@H](C)/C=C/C=C/C=C/1C [everolimus] + COCC[n+]1c2c(n(Cc3cnccn3)c1C)C(=O)c1ccccc1C2=O [YM155] (first compound 0.1 µM, partner dose 0.002 µM)",62.6,42.9,58.8,79.9,71.3,45.1,42.5,121,48.6,45.4,64.1,37.8,29.2,68.6,54.1,65.5,45.6,–,–,65.5
"CC(=O)O[C@@]12CO[C@@H]1C[C@H](O)[C@@]1(C)C(=O)[C@H](O)C3=C(C)[C@@H](OC(=O)[C@H](O)[C@@H](NC(=O)OC(C)(C)C)c4ccccc4)C[C@@](O)([C@@H](OC(=O)c4ccccc4)[C@H]21)C3(C)C [Docetaxel] + Cc1cc([N+](=O)[O-])ccc1NS(=O)(=O)c1cc(Cl)ccc1Cl [FH535] (first compound 0.0005 µM, partner dose 5 µM)",17.4,41.6,43.6,54.4,41.5,31.5,20.3,50,17.7,23.1,52.5,41.3,63.5,68,30.1,31.7,45.7,–,–,–
"Nc1ccn([C@@H]2O[C@H](CO)[C@@H](O)C2(F)F)c(=O)n1 [gemcitabine] + C#Cc1cccc(Nc2ncnc3cc(OCCOC)c(OCCOC)cc23)c1 [erlotinib] (first compound 0.002 µM, partner dose 4 µM)",43.1,29.6,43.6,64.1,46.7,42.8,58.3,76.4,80.4,86.3,82.2,51.7,99.2,74.2,73.4,58.8,70.6,–,–,53.2
